{
  "source": "PubChem BioAssay AID1745845",
  "about": "(National Center for Advancing Translational Sciences (NCATS), 2022)",
  "note": "Values joined by “and” are separate entries in the source; they are usually repeats but may differ in a detail not shown here. Equal values may be shown once. The campaign covered roughly 360,000 compounds. About 2,600 (0.72%) were called active. Inconclusive results, whose numbers are uncertain, are shown with a selection of clear calls. Calls follow the shape of the dose curve; as a rule, active = well fitted inhibition curve with a large enough effect; inconclusive = small, poorly fitted or top-dose-only effect; inactive = no such curve, though single readings can be large or run the other way. A potency beside an inconclusive call is a rough fit, not a confirmed value. Potency is read from the fitted curve at half-maximal effect; tags tell the direction and shape of the fitted curve.",
  "data": [
    {"test": "Primary qHTS for Inhibitors of ATXN expression; also: nearly all actives have a fitted effect of over 55% in size", "details": "HEK-293 ATXN2-luciferase reporter, luminescence, 24 h; series mostly up to 57 µM", "method_in_brief": "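qHTS (up to 57 uM final) was run with 24 h compound exposure of reporter cells at 37 °C. Each well was multiplexed: SteadyGlo luminescence measured ATXN2-luciferase expression after a fluorogenic Gly-Phe-AFC viability readout (25 uM final).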", "values": [
      {"smiles": "Clc1ccc(CONc2ncnc3nonc23)c(Cl)c1", "Potency": "inconclusive: 39.8 µM [inhibitor, single point]"},
      {"smiles": "Fc1ccc(-n2nnnc2-c2cnc(-c3cccs3)nc2C(F)(F)F)cc1", "Potency": "inconclusive: 31.6 µM [inhibitor, single point]"},
      {"smiles": "Cc1ccc(C2CC(c3cccs3)=NN2C(=O)CCl)cc1", "note": "(stereo unspecified)", "Potency": "inconclusive: 35.5 µM [inhibitor, single point]"},
      {"smiles": "Cc1cc(C)c2nc(N3CCC(C(=O)NCCCN4CCCCC4)CC3)sc2c1", "Potency": "inconclusive: 28.2 µM [inhibitor, single point]"},
      {"smiles": "CC(C)(C)[C@@H]1COC(=O)[C@H](Cc2ccc(F)cc2)CC/C=C\\C[C@H](CC(=O)N(CCO)Cc2ccccc2)C(=O)N1", "Potency": "inconclusive: 28.2 µM [inhibitor, single point]"},
      {"smiles": "CC1(C)C[C@H](O)[C@]2(CO)[C@H](O)C[C@]3(C)C(=CCC4[C@@]5(C)CC[C@H](O)C(C)(C)C5CC[C@]43C)[C@@H]2C1", "note": "(stereo partly specified)", "Potency": "inconclusive: 25.1 µM [inhibitor, single point]"},
      {"smiles": "Clc1cccc(-c2ccc3ncnc(NCc4cccs4)c3c2)c1", "Potency": "inconclusive: 28.2 µM [inhibitor, single point]"},
      {"smiles": "CCN(CC)CCC(c1ccc(N(C)C)cc1)c1c(OC)cc(OC)c2c(-c3ccccc3)cc(=O)oc12", "note": "(stereo unspecified)", "Potency": "inconclusive: 20 µM [inhibitor, single point]"},
      {"smiles": "Cc1csc2ncnc(NC3CCN(Cc4ccccc4)CC3)c12", "Potency": "inconclusive: 0.199 µM [inhibitor, full curve, poor fit]"},
      {"smiles": "CN(C)[C@@H](CCOc1cccc2ccccc12)c1ccccc1", "Potency": "active: 31.6 µM and inconclusive: 24.3 µM [inhibitor, partial curve]"},
      {"smiles": "Cc1noc(C)c1-c1ccc(C(=O)NCC(C)C)c2occc12", "Potency": "inactive"},
      {"smiles": "CCOC(=O)c1ccc(NS(=O)(=O)c2ccc3c(c2)OCCO3)cc1", "Potency": "inactive"},
      {"smiles": "CCOC(=O)C1=CN(Cc2cccc(F)c2)S(=O)(=O)NC1c1ccc(F)c(Cl)c1", "note": "(stereo unspecified)", "Potency": "inconclusive: 25.1 µM [inhibitor, single point]"},
      {"smiles": "Cc1c([N+](=O)[O-])cc(C(=O)Nc2ccc(Cc3ccncc3)cc2)cc1[N+](=O)[O-]", "Potency": "inconclusive: 25.1 µM [inhibitor, partial curve]"},
      {"smiles": "Cc1ccc(C(C)C)c(OCC(=O)NN=C2CCCCCCC2)c1", "Potency": "inconclusive: 17.8 µM [inhibitor, partial curve, poor fit]"},
      {"smiles": "CCCCCc1c(-c2ccc(F)cc2)ncn1CCc1ccccc1OC", "Potency": "inconclusive: 39.8 µM [inhibitor, single point]"},
      {"smiles": "C=C1CC[C@@H]2[C@](C)(CO)[C@H](O)CC[C@@]2(C)[C@@H]1C/C=C1/C(=O)OCC1O", "note": "(stereo partly specified)", "Potency": "inconclusive: 39.8 µM [inhibitor, single point]"},
      {"smiles": "Cc1cc(OC(F)F)ccc1NC(=O)Nc1ccc([N+](=O)[O-])cc1", "Potency": "inconclusive: 31.6 µM [inhibitor, single point]"},
      {"smiles": "O=C1OC(c2ccccc2)(c2ccc(O)cc2)c2ccccc21", "note": "(stereo unspecified)", "Potency": "inactive"},
      {"smiles": "CCC1CN(C(=O)NCc2ccccc2)c2cc(C)ccc2O1", "note": "(stereo unspecified)", "Potency": "inactive"},
      {"smiles": "CCOC(=O)c1nn(-c2ccc(Cl)cc2)c2nnc(Cc3ccccc3)c(=O)n12", "Potency": "inconclusive: 7.08 µM [inhibitor, single point]"},
      {"smiles": "C=CCn1c(-c2csc3ccccc23)n[nH]c1=S", "Potency": "inactive"},
      {"smiles": "CC(C(=O)c1ccccc1)[n+]1cccc(Br)c1", "note": "(stereo unspecified)", "Potency": "inactive"},
      {"smiles": "Cc1ccc(S(=O)(=O)N2C[C@H]3n4c(=O)ccc(=O)n4C[C@H](OC(=O)NC4CCCC4)[C@@]3(O)C2)cc1", "Potency": "inconclusive: 31.6 µM [inhibitor, single point]"},
      {"smiles": "COC(=O)C1=C(C)N(Cc2ccccc2)C(=NCCc2c[nH]c3ccccc23)N[C@H]1c1cccc(C(F)(F)F)c1", "Potency": "inconclusive: 31.6 µM [inhibitor, single point]"},
      {"smiles": "O=C(COC(=O)CCN1C(=O)/C(=C\\C=C\\c2ccccc2)SC1=S)Nc1cc(F)ccc1F", "Potency": "inconclusive: 8.44 µM [inhibitor, single point]"},
      {"smiles": "CN(C)CCCNC(=O)C[C@H]1C[C@H](C(=O)N2CCOCC2)[C@@]2(CCC3CCCC3)c3[nH]c4cc(-c5ccco5)ccc4c3CCN2C1=O", "Potency": "active: 25.1 µM"},
      {"smiles": "CN(Cc1ccc(Cl)cc1)C(CCc1ccccc1)C(=O)NC1CCCCC1", "note": "(stereo unspecified)", "Potency": "inactive"},
      {"smiles": "Cc1ccc(Cn2nnc(C(=O)Nc3cccc(C)c3C)c2N)cc1", "Potency": "inactive"},
      {"smiles": "CC(=O)Nc1nc(C)c(-c2csc(Nc3ccc(O)cc3)n2)s1", "Potency": "inactive"},
      {"smiles": "Cc1ccc2occ(CC(=O)Nc3ccc(S(=O)(=O)N4CCCC(C)C4)cc3)c2c1", "note": "(stereo unspecified)", "Potency": "inconclusive: 15.8 µM [inhibitor, partial curve]"},
      {"smiles": "CCOc1cccc(CN2CCCC(C(=O)c3cccc(C(F)(F)F)c3)C2)c1O", "note": "(stereo unspecified)", "Potency": "inactive"},
      {"smiles": "CC(C)C1Cc2c(sc3[nH]c(=S)n(Cc4ccccc4)c(=O)c23)CO1", "note": "(stereo unspecified)", "Potency": "inconclusive: 25.1 µM [inhibitor, single point]"},
      {"smiles": "Cn1nc(C(F)(F)F)c(C#N)c1N1CCN(c2ccc(F)cc2)CC1", "Potency": "inactive"},
      {"smiles": "CC(C)C(Cl)=NOC(=O)Nc1ccc(S(N)(=O)=O)cc1", "Potency": "inconclusive: 37.7 µM [inhibitor, single point]"},
      {"smiles": "CC(C)(C)c1ccc(C(=O)N2CCCC(c3nc4c(nnn4Cc4cccc(F)c4)c(=O)[nH]3)C2)cc1", "note": "(stereo unspecified)", "Potency": "inconclusive: 39.8 µM [inhibitor, single point]"},
      {"smiles": "Cc1ccccc1N1CC(O)(c2cccs2)[N+]2=C1CCCC2", "note": "(stereo unspecified)", "Potency": "inactive"},
      {"smiles": "CCOc1ccc(NC(=O)CSc2c3c(nc4ccccc24)CCCC3)cc1", "Potency": "inconclusive: 25.1 µM [inhibitor, single point]"},
      {"smiles": "CCOc1ccccc1N1CC(c2nc3ccccc3n2CCCOc2ccc(OC)cc2)CC1=O", "note": "(stereo unspecified)", "Potency": "inactive"},
      {"smiles": "COc1cccc(CNC(=O)c2ccc(-n3c(C)cc4c3CCCC4)cc2)c1", "Potency": "inconclusive: 31.6 µM [inhibitor, single point]"},
      {"smiles": "O=C(NCC1CCN(Cc2cccc(Cl)c2)CC1)Nc1ccc(F)c(Cl)c1", "Potency": "inconclusive: 39.8 µM [inhibitor, single point]"}
    ]}
  ]
}
